This is one part of the list.
How the values were obtained:
HSkMC = human skeletal muscle cells; assay: cytotoxicity call (relative viability < 0.9); conditions: 10 µM
HepG2 = assay: cytotoxicity call (relative viability < 0.9); conditions: 10 µM
S. aureus RN4220 = assay: growth inhibition call (relative growth <= 0.2); conditions: 50 µM

Row | Structure (SMILES) | cytotoxicity call (HSkMC) | cytotoxicity call (HepG2) | growth inhibition call (S. aureus RN4220)
1 | C[C@H](CO)N1C[C@H](C)[C@H](CN(C)Cc2ccc(-c3ccccc3)cc2)Oc2c(NC(=O)C3CC3)cccc2C1=O | inactive | inactive | inactive
2 | CCCC#Cc1cnc2c(c1)C(=O)N([C@H](C)CO)C[C@@H](C)[C@H](CN(C)S(=O)(=O)c1cn(C)cn1)O2 | inactive | inactive | inactive
3 | C[C@H](CO)N1C[C@H](C)[C@@H](CN(C)Cc2ccc(-c3ccccc3)cc2)Oc2ccc(NC(=O)Nc3ccc(F)cc3)cc2CC1=O | inactive | active | inactive
4 | OCC(O)C(O)CO (stereo not given) | inactive | inactive | inactive
5 | Cc1noc(C)c1S(=O)(=O)Nc1ccc2c(c1)CC(=O)N([C@@H](C)CO)C[C@H](C)[C@H](CN(C)S(=O)(=O)c1cn(C)cn1)O2 | inactive | inactive | inactive
6 | C[C@H](CO)N1C[C@H](C)[C@@H](CN(C)C(=O)Nc2ccc(N3CCCCC3)cc2)OCc2cnnn2CCCC1=O | inactive | inactive | inactive
7 | COc1ccc(S(=O)(=O)Nc2ccc3c(c2)CC(=O)N([C@H](C)CO)C[C@H](C)[C@@H](CN(C)S(=O)(=O)c2ccc(C)cc2)O3)cc1 | inactive | inactive | inactive
8 | C[C@H]1CN([C@@H](C)CO)C(=O)c2cccc(NS(=O)(=O)c3cn(C)cn3)c2O[C@H]1CN(C)S(=O)(=O)c1cccs1 | inactive | inactive | inactive
9 | C[C@@H]1CN([C@H](C)CO)C(=O)Cc2cc(NS(C)(=O)=O)ccc2O[C@@H]1CN(C)Cc1ccc(C(=O)O)cc1 | inactive | inactive | inactive
10 | C[C@@H]1CN([C@H](C)CO)C(=O)CCCn2cc(nn2)CO[C@H]1CN(C)S(=O)(=O)c1ccc(Oc2ccccc2)nc1 | inactive | inactive | inactive
11 | CO[C@H]1CN(C)C(=O)c2ccc(NC(=O)Nc3ccc(Cl)cc3)cc2OC[C@H](C)N(C(=O)Nc2c(C)noc2C)C[C@@H]1C | inactive | inactive | inactive
12 | Cc1noc(C)c1S(=O)(=O)N(C)C[C@H]1Oc2ccc(NC(=O)Nc3ccc4c(c3)OCO4)cc2CC(=O)N([C@@H](C)CO)C[C@@H]1C | inactive | inactive | inactive
13 | C/C=C/c1ccc2c(c1)O[C@H](CN(C)S(=O)(=O)c1ccc(C)cc1)[C@H](C)CN([C@H](C)CO)S2(=O)=O | inactive | inactive | inactive
14 | C[C@H]1CN([C@@H](C)CO)C(=O)c2cccc(NC(=O)c3nc4ccccc4s3)c2O[C@@H]1CN(C)S(C)(=O)=O | inactive | inactive | inactive
15 | C[C@@H]1CN([C@@H](C)CO)C(=O)c2cc(NC(=O)Nc3ccc(C(F)(F)F)cc3)ccc2O[C@@H]1CN(C)Cc1ccc(Cl)c(Cl)c1 | active | active | inactive
16 | C[C@@H]1CN([C@H](C)CO)S(=O)(=O)c2ccc(C#CCN(C)C)cc2O[C@H]1CN(C)S(=O)(=O)c1cccc(F)c1 | inactive | inactive | inactive
17 | C[C@H](CO)N1C[C@H](C)[C@H](CN(C)Cc2ccncc2)Oc2ccc(NS(=O)(=O)c3ccccc3)cc2CC1=O | inactive | inactive | inactive
18 | C[C@H]1CCCCO[C@@H](CN(C)Cc2ccc(C(F)(F)F)cc2)[C@@H](C)CN([C@@H](C)CO)C(=O)c2cc(NC(=O)Nc3ccccc3)ccc2O1 | active | active | inactive
19 | C[C@H]1CN([C@@H](C)CO)S(=O)(=O)c2ccc(Br)cc2O[C@@H]1CN(C)S(=O)(=O)c1ccccc1F | inactive | inactive | inactive
20 | COc1ccc(S(=O)(=O)Nc2ccc3c(c2)C(=O)N([C@H](C)CO)C[C@@H](C)[C@H](CN(C)C(=O)Nc2ccc(F)cc2)OCCCC[C@@H](C)O3)cc1 | inactive | inactive | inactive
21 | CCS(=O)(=O)NCC[C@@H]1CC[C@@H](NS(=O)(=O)c2cccc(F)c2)[C@H](CO)O1 | inactive | inactive | inactive
22 | CCOC(=O)C(CCc1ccccc1)NC(C)C(=O)N(CC(=O)O)C1Cc2ccccc2C1.Cl (stereo not given) | inactive | inactive | inactive
23 | CCO[C@@H]1OC(C(=O)N2CCOCC2)=C[C@H](C2CC2)[C@H]1CCCOC(=O)NCCCCCC(=O)NO | inactive | inactive | inactive
24 | C[C@@H]1CCCCO[C@@H](CN(C)CC2CC2)[C@@H](C)CN([C@H](C)CO)C(=O)c2cc(NC(=O)Nc3ccc(C(F)(F)F)cc3)ccc2O1 | inactive | active | inactive
25 | CC(=O)NCCCC[C@@H]1NC(=O)[C@@H]2C[C@H](C(=O)NCCCCCCNC(=O)CS)[C@H](c3ccc(O)cc3)N2C1=O | inactive | inactive | inactive

From the antibiotic and cytotoxicity screens of Wong et al. (2023)
